Measured values from PMC6919601, “Identification of Plasmodium dipeptidyl aminopeptidase allosteric inhibitors by high throughput screening” (PLoS ONE, 2019).
In all, about 110,000 compounds went through this assay and about 230 (0.21%) showed an effect of 50% or more. Some of the results follow.

Molecular target: DPAP1 (Plasmodium falciparum, UniProt Q8IIJ9)
Test: primary screen, percent inhibition; read by cleavage of a fluorogenic dipeptide substrate; higher = more effect of the substance
Set-up: species or system P. falciparum D10 trophozoite lysates; single well
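Also: 30 min substrate incubation versus DMSO and 10 µM JCP410 controls.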

Sequence of DPAP1 (Q8IIJ9 whole entry, looked up): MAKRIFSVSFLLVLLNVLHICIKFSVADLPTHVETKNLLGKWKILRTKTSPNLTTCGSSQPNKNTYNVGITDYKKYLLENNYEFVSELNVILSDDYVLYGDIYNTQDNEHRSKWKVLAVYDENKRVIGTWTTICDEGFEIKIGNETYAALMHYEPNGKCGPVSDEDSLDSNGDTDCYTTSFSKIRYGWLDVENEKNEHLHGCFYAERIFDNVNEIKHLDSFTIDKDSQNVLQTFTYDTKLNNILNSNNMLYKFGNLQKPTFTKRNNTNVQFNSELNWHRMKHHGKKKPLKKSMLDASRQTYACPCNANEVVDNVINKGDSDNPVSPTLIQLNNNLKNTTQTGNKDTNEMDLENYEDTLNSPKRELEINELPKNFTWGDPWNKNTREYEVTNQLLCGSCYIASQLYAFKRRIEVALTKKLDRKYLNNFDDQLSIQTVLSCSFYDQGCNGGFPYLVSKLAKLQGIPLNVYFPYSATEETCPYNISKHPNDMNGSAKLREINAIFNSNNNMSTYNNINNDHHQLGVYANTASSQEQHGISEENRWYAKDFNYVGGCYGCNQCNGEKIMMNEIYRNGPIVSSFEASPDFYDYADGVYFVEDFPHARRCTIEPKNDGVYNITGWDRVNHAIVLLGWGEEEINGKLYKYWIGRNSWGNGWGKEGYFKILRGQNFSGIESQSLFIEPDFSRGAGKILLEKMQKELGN

First: CCCCC(=O)Nc1c(C(=O)c2ccc(F)cc2)oc2ccccc12
Second: O=C1c2oc3ccccc3c(=O)c2C(c2ccc(F)cc2)N1CCCN1CCOCC1 (stereo not shown)
The “% Inhibition @ 10 uM” value of the first is lower: -2.91% for the first, 3.93% for the second.

Going from `COCCNC(=O)c1cnn2c1NC(c1ccc(F)cc1)CC2C(F)(F)F` (stereo not shown) to `COCCN1Cc2cccc(C(=O)NCc3ccccc3OC)c2C1=O`, the “% Inhibition @ 10 uM” value rises from -5.07% to -2.29%.

Compared with `COc1ccc(C2N(C(=O)c3ccccc3)CCN2C(=O)c2ccc(C)cc2)cc1` (stereo not shown), `COc1ccccc1CNCc1c(C(=O)O)n(Cc2ccc(F)cc2)c2cc(C)ccc12` is higher in “% Inhibition @ 10 uM” value: -5.63% for the first, 3.9% for the second.

Going from `CC(Sc1nc2c(c(=O)n(C)c(=O)n2C)n1Cc1cccc(C(F)(F)F)c1)C(=O)O` (stereo not shown) to `CC(C)(C)C(=O)NC1(C(F)(F)F)NC(=O)N(Cc2ccccc2)C1=O` (stereo not shown), the “% Inhibition @ 10 uM” value falls from 15.4% to 0.0451%.

Compared with `CC1CCCCN1CCCNC(=O)Cn1ncc2c3ccccc3n(Cc3ccc(F)cc3)c2c1=O` (stereo not shown), `Cc1ccc(CNC(=O)Cn2cc(S(=O)(=O)Cc3ccc(F)cc3)c3ccccc32)cc1` is higher in “% Inhibition @ 10 uM” value: -3.35% for the first, 1.25% for the second.

Compared with `C=CCOc1cccc(C2c3c(oc4ccc(C)cc4c3=O)C(=O)N2CCOC)c1` (stereo not shown), `COc1cc(C2c3c(oc4ccccc4c3=O)C(=O)N2c2nc(C)c(C)s2)cc(OC)c1OC` (stereo not shown) is lower in “% Inhibition @ 10 uM” value: 2.31% for the first, 0.189% for the second.

Compared with `COc1cc(NC(=O)Cc2ccc(OC)c(OC)c2)c2ncccc2c1`, `COc1ccc(C2(C(=O)NCCc3ccc(OC)c(OC)c3)CCOCC2)cc1` is lower in “% Inhibition @ 10 uM” value: 1.62% for the first, -0.958% for the second.

Going from `COc1cccc(C(=O)Nc2nc3c(Cl)cccc3s2)c1OC` to `COc1cccc(OC)c1C(=O)Nc1ccc(Cl)c(Cl)c1`, the “% Inhibition @ 10 uM” value rises from 2.17% to 3.1%.

Going from `CC1(C)CC(O)=C(C(=O)c2ccccc2)/C(=N/CCc2nc3ccccc3[nH]2)C1` to `COc1ccccc1C1C2=C(O)CC(C)(C)CC2=NC(C)=C1C(=O)Nc1ccc(F)cc1` (stereo not shown), the “% Inhibition @ 10 uM” value rises from -2.19% to 2.51%.

Compared with `CC(C)CNC(=O)C(=O)Nc1ccc(Cl)c(Cl)c1`, `COc1ccc(NC(=O)COc2ccc(Cl)cc2)cc1NC(=O)c1ccco1` is lower in “% Inhibition @ 10 uM” value: 1.29% for the first, -9.6% for the second.

Compared with `CCOC(=O)c1[nH]c(C)c(C(=O)c2ccc(C)cc2)c1C`, `Cc1cc(C(=O)O)c(NC(=O)c2ccc(C(C)(C)C)cc2)s1` is lower in “% Inhibition @ 10 uM” value: 2.54% for the first, -6.25% for the second.

First: COc1cc(OC)c(/C=C2\C(=O)NC(=O)N(C)C2=O)c(OC)c1
Second: COc1ccc(CC2(CN3CCCCC3)C(=O)N(C)C(=O)N(C)C2=O)cc1OC
The “% Inhibition @ 10 uM” value of the first is lower: -2.48% for the first, 0.503% for the second.

Going from `O=C(c1nc(SCc2ccc(F)cc2)ncc1Cl)N1CCN(Cc2ccccc2)CC1` to `CCOc1cc(CN2CCN(c3ccccc3F)CC2)ccc1O`, the “% Inhibition @ 10 uM” value falls from 4% to -1.98%.

Compared with `COc1ccc(S(N)(=O)=O)cc1-c1nnc2c3ccccc3c(C)nn12`, `COc1ccc(-c2nc3ccccc3o2)cc1N` is higher in “% Inhibition @ 10 uM” value: 3.93% for the first, 6.86% for the second.

Compared with `COc1ccc(-c2nnc(SCC(=O)O)n2C)cc1`, `COc1ccc(-c2nonc2NC(=O)c2cc(OC)c(OC)c(OC)c2)cc1` is higher in “% Inhibition @ 10 uM” value: 0.503% for the first, 2.29% for the second.

Going from `Cc1cc(NC(=O)c2cccc(S(=O)(=O)N3CC(c4ccccc4)CC3=O)c2)no1` (stereo not shown) to `Cc1nn(CC(=O)NC2CCc3ccccc32)c(=O)c2ccccc12` (stereo not shown), the “% Inhibition @ 10 uM” value rises from -0.834% to 5.43%.

Going from `O=C(CSc1ncnc2c1sc1ccccc12)NC1CCCCC1` to `Cc1nnc(SCC(=O)NCCN2CCCCCC2)c2nn(-c3ccccc3)c(C)c12`, the “% Inhibition @ 10 uM” value falls from 4.47% to -4.94%.

Compared with `CCCCn1c(=O)c(C(=O)Nc2nccs2)c(O)c2ccccc21`, `CCCCNC(=O)c1cc2c(=O)n3cccc(C)c3nc2n1C` is higher in “% Inhibition @ 10 uM” value: -4.48% for the first, -3.41% for the second.

Going from `COCCNC(=O)c1csc2c1CCCC2` to `COc1ccc(CCNC(=O)c2sc3nc4n(c(=O)c3c2C)CCCC4)c(OC)c1`, the “% Inhibition @ 10 uM” value rises from -1.44% to -0.205%.

First: CC1=C(C)CC(C(=O)NCCCCc2ccccc2)C(C(=O)O)C1 (stereo not shown)
Second: CC1CCN(CCCNC(=O)CN2N=C(c3ccccc3)CCC2=O)CC1
The “% Inhibition @ 10 uM” value of the first is lower: -4.77% for the first, -1.21% for the second.

First: CC(C)c1ccc(C2C(C#N)=C(N)Oc3cc(O)ccc32)cc1 (stereo not shown)
Second: CC(C)c1[nH]nc2c1C(c1c[nH]nc1-c1ccc(F)cc1)C(C#N)=C(N)O2 (stereo not shown)
The “% Inhibition @ 10 uM” value of the first is higher: 9.92% for the first, 5.48% for the second.

First: CCCNC(=O)C1CSC2(CCN(C)CC2)N1C(=O)CC (stereo not shown)
Second: CCCN1CCC(N(CCC)CC2CC2)CC1
The “% Inhibition @ 10 uM” value of the first is lower: -3.62% for the first, -3.6% for the second.

First: COCC(C)NC1CCCCCCC1 (stereo not shown)
Second: O=C(c1ccccc1Br)N(C1CCCCC1)C1CCCCC1
The “% Inhibition @ 10 uM” value of the first is lower: -1.81% for the first, 2.23% for the second.

Compared with `O=C1NC(=O)C(=Cc2ccc(Sc3ccc(Cl)cc3)o2)C(=O)N1`, `COc1ccc(/C=C2\NC(=O)c3ccccc3C2=O)cc1` is lower in “% Inhibition @ 10 uM” value: 4.86% for the first, -3.8% for the second.

Going from `Brc1ccc(-c2nc(-c3ccccc3)cc(N3CCOCC3)n2)cc1` to `Cc1ccc(-c2cc(C(F)F)n3ncc(C(=O)N4CCSCC4)c3n2)cc1`, the “% Inhibition @ 10 uM” value falls from 2.65% to -7.58%.

Going from `Cc1cc(N)n(-c2ncnc3scc(-c4ccc(Cl)cc4)c23)n1` to `Clc1ccc(-c2noc(C3CCCCC3)n2)cc1`, the “% Inhibition @ 10 uM” value rises from -6.17% to -4.11%.

First: CCOc1ccc(CCNC(=O)Cn2c(-c3ccc(F)cc3)cc(C(C)=O)c2C)cc1OCC
Second: CCOC(=O)c1cc(C)n(Cc2ccc(OCC)c(OC)c2)c1C
The “% Inhibition @ 10 uM” value of the first is lower: -0.176% for the first, 3.47% for the second.

First: COc1ccc(-c2cc(C(F)(F)F)n3nc(C(=O)NCC4CCCO4)c(Cl)c3n2)cc1OC (stereo not shown)
Second: COc1ccc(C2c3cc(OC)c(OC)cc3CCN2C(=O)c2ccco2)cc1OC (stereo not shown)
The “% Inhibition @ 10 uM” value of the first is higher: -0.413% for the first, -2.79% for the second.

First: CN(c1ccccc1)c1nc(=O)c2sc3ccccc3c2s1
Second: CSc1nc2ccccc2n1CC(=O)Nc1ccccc1
The “% Inhibition @ 10 uM” value of the first is higher: 0.215% for the first, -1.64% for the second.

Going from `Cc1ccc(NC(=O)c2ccc(Cn3nc(C)c(Br)c3C)o2)cc1F` to `COc1cccc(C(=O)Nc2nc(-c3nnn(-c4ccccc4C)c3C)ns2)c1`, the “% Inhibition @ 10 uM” value falls from 4.84% to -0.835%.

First: CC(C)(C)OC(=O)N[C@@H](Cc1cc(I)c(O)c(I)c1)C(=O)NCC#N
Second: CCOC(=O)c1c(C)oc(C)c1CNC(N)=O
The “% Inhibition @ 10 uM” value of the first is higher: 4.63% for the first, 0.895% for the second.

First: COc1ccc(S(=O)(=O)Cc2ccc(C(=O)NCc3cccnc3)o2)cc1
Second: O=C(COc1ccc(Cl)cc1)NCc1ccccc1
The “% Inhibition @ 10 uM” value of the first is higher: 2.14% for the first, -1.78% for the second.

Going from `Cc1ccc(S(=O)(=O)N(C)C)cc1NC(=O)C12CCC(C)(C(=O)C1=O)C2(C)C` (stereo not shown) to `CC1(C)CC(=O)c2sc(NS(=O)(=O)c3ccc(Cl)cc3)nc2C1`, the “% Inhibition @ 10 uM” value falls from -10.7% to -11.5%.

Going from `O=C(CC1Sc2ccccc2NC1=O)Nc1cccnc1` (stereo not shown) to `O=C(c1ccccc1)c1cc(Cl)ccc1NC(=O)C(F)(F)F`, the “% Inhibition @ 10 uM” value rises from -6.02% to -0.303%.

Compared with `c1ccc(CN2CCC(Nc3nc4ccccc4n4nnnc34)CC2)cc1`, `COc1ccccc1CN1CCCC(C(=O)N(C)Cc2ccccc2)C1` (stereo not shown) is higher in “% Inhibition @ 10 uM” value: 1.15% for the first, 4.84% for the second.

Going from `Cc1oc(-c2ccc(Cl)cc2)nc1CN1CCC(C(=O)NCCCN2CCCC2=O)CC1` to `Cc1ccc(C)c(CN2CCN(c3cccc(Cl)c3)CC2)c1`, the “% Inhibition @ 10 uM” value falls from 2.37% to -4.61%.

First: Cc1c(Cl)cccc1-c1ccc(CNCCSc2nnnn2C)o1
Second: Cc1n[nH]c(C)c1CCCOc1ccccc1Cl
The “% Inhibition @ 10 uM” value of the first is lower: -7.24% for the first, -2.12% for the second.

Compared with `CCN(Cc1ccccc1)S(=O)(=O)c1ccc2oc(C(=O)O)c(C)c2c1`, `COc1ccccc1CNC(=O)CN(c1ccc(F)cc1)S(=O)(=O)c1ccc2c(c1)OCCO2` is higher in “% Inhibition @ 10 uM” value: -2.26% for the first, 1.1% for the second.

First: CCCc1nc2c(o1)CC(CC(C)SCC)CC2=O (stereo not shown)
Second: CSc1nc2sc3c(c2c(=O)n1C)CC(C)(C)OC3
The “% Inhibition @ 10 uM” value of the first is higher: 2.4% for the first, 1.8% for the second.

Compared with `CC1CCCC(NC(=O)C2c3ccccc3C(=O)N2CCc2ccccc2)C1C` (stereo not shown), `CC(C)OCCCNC(=O)C1c2ccccc2C(=O)N(C)C1c1c[nH]c2ccccc12` (stereo not shown) is higher in “% Inhibition @ 10 uM” value: 2.93% for the first, 4.07% for the second.

Going from `CCCCOC(=O)c1ccc(NC(=O)c2ccc([N+](=O)[O-])cc2)cc1` to `O=C(OCCN1CCCCC1)c1ccc(O)cc1`, the “% Inhibition @ 10 uM” value rises from -5.51% to 2.65%.

Compared with `CCc1ccc(C2CC(c3ccc(OC)c(OC)c3OC)n3nnnc3N2)cc1` (stereo not shown), `COc1cccc2c1OC(C)(C)N1N=C(c3ccco3)CC21` (stereo not shown) is higher in “% Inhibition @ 10 uM” value: 3.32% for the first, 9.35% for the second.

First: Cc1cccc(NC(=O)c2nc[nH]n2)c1C
Second: CCCCCC(=O)Nc1cc(OC)ccc1OC
The “% Inhibition @ 10 uM” value of the first is lower: -6.07% for the first, -1.98% for the second.

Compared with `CCc1ccc(N2C(=O)C(Cl)=C(N3CCCCC3)C2=O)cc1`, `O=S(=O)(c1ccc(F)cc1)N1CCCC1` is lower in “% Inhibition @ 10 uM” value: -1.07% for the first, -2.6% for the second.

First: COCCN1C(=O)c2ccccc2C(C(=O)NCc2ccccc2OC)C1c1cn(C)c2ccccc12 (stereo not shown)
Second: COc1ccc(C2CC(=O)N3C(=C2C#N)SCC3(O)c2ccc(C)cc2)cc1Cn1cccn1 (stereo not shown)
The “% Inhibition @ 10 uM” value of the first is lower: 2.42% for the first, 3.24% for the second.

First: CN(C)CCCNC(=O)C12CC3CC(CC(C3)C1)C2
Second: CCCN(Cc1cccs1)C(=O)NC12CC3CC(CC(C3)C1)C2
The “% Inhibition @ 10 uM” value of the first is higher: 10.1% for the first, -1.08% for the second.

Going from `O=C(O)c1ccc2[nH]c(-c3cc4ccc(O)cc4oc3=O)nc2c1` to `Oc1nc(/C=C/c2c(O)ccc3ccccc23)cc(C(F)(F)F)n1`, the “% Inhibition @ 10 uM” value rises from 3.96% to 15.3%.

Going from `CCOC(=O)c1cnn2c(C(F)F)cc(C3CC3)nc12` to `O=C1CSC(c2cccc(Cl)c2Cl)N1C1CCCCC1` (stereo not shown), the “% Inhibition @ 10 uM” value rises from 0.0289% to 1.67%.

Compared with `CC(C)S(=O)(=O)c1oc(-c2cccs2)nc1S(=O)(=O)c1ccccc1`, `O=S(=O)(Nc1ccccc1C(F)(F)F)c1ccc(F)cc1` is lower in “% Inhibition @ 10 uM” value: 3.74% for the first, -10.5% for the second.

First: CC(C)C(=O)O/N=C(\N)c1ccccn1
Second: CNS(=O)(=O)c1cn(CC(=O)N2CCN(C3CCCCC3)CC2)cc1S(=O)(=O)NC
The “% Inhibition @ 10 uM” value of the first is higher: 3.72% for the first, -7.67% for the second.
